{"source": "PubChem BioAssay AID1458", "about": "(National Center for Advancing Translational Sciences (NCATS), 2008)", "note": "Among all 210,000 compounds or so, about 5,900 (2.8%) were called active. The shares of active, inactive and inconclusive entries below differ from those in the screen. The call rests on the fitted dose curve; in most records, active means well fitted activation curve with a large enough effect; inconclusive means small, poorly fitted or top-dose-only effect; inactive means no such curve, though single readings can be large or run the other way. Where the call is inconclusive, the potency comes from a doubtful curve fit. Potency means the concentration at half of the fitted maximal effect; tags describe the fitted curve by direction and shape."}
{"experiment": "qHTS Assay for Enhancers of SMN2 Splice Variant Expression; further: nearly all actives have a fitted effect of over 55% in size; on activity change, positive = activation: % of control where 0% means no effect", "settings": "HEK293 SMN2-luciferase splicing reporter, luminescence, 30-36 h; activity change, positive = activation: at 46.1 µM (top of the series)", "how_it_was_run": "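HEK293 cells carry an SMN2 […]–luciferase reporter in which exon 7 inclusion puts luciferase in frame. Cells were plated 10-12 h before compound addition, then incubated 30-36 h at 37C. ONE-Glo luminescence was read; sodium butyrate at 4.5 mM final served as control.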"}
{"smiles": "COCCCNC(=S)NC(=O)c1ccc([N+](=O)[O-])cc1", "Potency": "inconclusive: 3.16 µM [activator, single point]"}
{"smiles": "CCOC(=O)C1=C(C)OC(N)=C(C#N)C1c1ccoc1", "note": "(stereo unspecified)", "Potency": "inconclusive: 4.47 µM [activator, single point]"}
{"smiles": "COC(=O)c1cc(COC(=O)c2nc3nccc(C)n3n2)oc1C", "Potency": "inconclusive: 17.8 µM [activator, single point]"}
{"smiles": "Cc1ccnc(NC(=O)c2c(O)c3ccccc3n(C)c2=O)c1", "Potency": "active: 12.6 µM"}
{"smiles": "CCn1c(C)cc(/C=C2/SC(=S)NC2=O)c1C", "Potency": "inconclusive: 35.5 µM [activator, single point]"}
{"smiles": "CCSc1nc(O)c(Cc2ccccc2)c(=O)[nH]1", "Potency": "inconclusive: 0.316 µM [activator, full curve, poor fit]"}
{"smiles": "CCOc1ccc2nc(NC(=O)CSc3nc(SC)ns3)sc2c1", "Potency": "inconclusive: 15.8 µM [activator, partial curve]"}
{"smiles": "CCC(=O)Nc1ccc(N2CCC(C)CC2)cc1", "Potency": "inconclusive: 12.6 µM [activator, partial curve, poor fit]"}
{"smiles": "CCn1c(C)nc2cc(C(=O)NNC(=S)Nc3ccccc3Cl)ccc21", "Potency": "inconclusive: 20 µM [activator, single point]"}
{"smiles": "COc1ccc(C2=Nn3c(nnc3-c3cccnc3)SC2)cc1", "Potency": "inconclusive: 11.2 µM [activator, partial curve, poor fit]"}
{"smiles": "O=C(Oc1csc(=S)n1C(=O)c1ccccc1)c1ccccc1", "Potency": "inconclusive: 3.16 µM [activator, full curve]"}
{"smiles": "Nc1nc(N)nc(-c2ccccc2O)n1", "Potency": "inconclusive: 31.6 µM [activator, single point]"}
{"smiles": "COc1cc(CNCCSc2nnnn2C)ccc1OCc1ccccc1C", "Potency": "inactive"}
{"smiles": "Cc1c(CN(C)C(=O)c2cc(-c3ccccc3)nc3ccc(Br)cc23)cnn1C", "Potency": "inactive"}
{"smiles": "CCCNC(=S)N1CC2(C)CN(C(=O)C(=O)OC)CC(C)(C1)C2=O", "Potency": "inactive"}
{"smiles": "CCOC(=O)N1CCN(C(=S)NC2CCCC2)CC1", "Potency": "inactive"}
{"smiles": "O=C(NCCc1ccccc1)C(=O)Nc1nccs1", "Potency": "inconclusive: 12.6 µM [activator, partial curve]"}
{"smiles": "Brc1ccc(-c2cn3c(n2)SCC3)cc1", "Potency": "active: 10 µM"}
{"smiles": "COc1ccc(S(=O)(=O)Nc2c(C)c(C)cc3c2ncn3C)cc1", "Potency": "inconclusive: 11.2 µM [activator, partial curve, poor fit]"}
{"smiles": "CCc1nnc(NC(=O)CSc2nc(-c3ccc(OC)cc3)ns2)s1", "Potency": "inconclusive: 35.5 µM [activator, single point]"}
{"smiles": "NC(=O)c1ccsc1NC(=O)C1CCCCC1", "Potency": "inactive"}
{"smiles": "CC(=O)Cc1nsc(NC(=O)c2ccc(-c3cccc(C(F)(F)F)c3)o2)n1", "Potency": "inconclusive: 11.2 µM [activator, partial curve, poor fit]"}
{"smiles": "CCOc1ccc(C(=O)Nc2ccc3oc(-c4cccc5ccccc45)nc3c2)cc1", "Potency": "inactive"}
{"smiles": "CCOC(=O)C1=C(C)N=C2c3ccccc3C(=O)C2C1c1ccc(Br)cc1", "note": "(stereo unspecified)", "Potency": "inconclusive: 6.31 µM [activator, single point]"}
{"smiles": "O=C(COc1ccc(Cl)cc1Cl)Nc1ccccc1NS(=O)(=O)c1cccs1", "Potency": "inconclusive: 25.1 µM [activator, single point]"}
{"smiles": "COc1ccc(CCNS(=O)(=O)c2ccc(OC)cc2)cc1", "Potency": "inconclusive: 0.0224 µM [activator, full curve, poor fit]"}
{"smiles": "O=C(Nc1nc(-c2ccc(Cl)cc2)cs1)C1CCCO1", "note": "(stereo unspecified)", "Potency": "inactive"}
{"smiles": "COc1cccc(Cn2c(=O)c(-c3cccc(C#N)c3)nc3cnc(Nc4ccccc4)nc32)c1", "Potency": "inactive"}
{"smiles": "COc1cc(C(=O)Nc2ccc(Br)cc2C(=O)c2cc(OC)c(OC)c(OC)c2)cc(OC)c1OC", "Potency": "inconclusive: 14.1 µM [activator, single point]"}
{"smiles": "O=C(Nc1ccccc1)N1CCC2(CC1)CCN(C(=O)c1cnccn1)CC2", "Potency": "inactive"}
{"smiles": "O=C1CC(Nc2ccccc2)C(=O)N1Cc1ccccc1", "note": "(stereo unspecified)", "Potency": "inconclusive: 0.0079 µM [activator, full curve]"}
{"smiles": "CC(C)c1nnc(NC(=O)c2cnccn2)s1", "Potency": "inconclusive: 8.91 µM [activator, partial curve]"}
{"smiles": "CC(C)(C)NC(=O)[C@@H]1CC[C@@H]2[C@@H]3CC[C@@H]4NC(=O)C=C[C@@]4(C)[C@H]3CC[C@]21C", "Potency": "inactive"}
{"smiles": "Cc1ccc(OCC(=O)Nc2ccc(-c3nnc(-c4ccco4)o3)cc2)cc1", "Potency": "inconclusive: 22.4 µM [activator, partial curve, poor fit]"}
{"smiles": "O=C(N/N=C/c1ccccc1)c1c(O)c2ccccc2[nH]c1=O", "Potency": "active: 3.55 µM"}
{"smiles": "CCc1nnc(NC(=O)CSc2nnc(-c3ccccc3NC(=O)c3ccccc3)o2)s1", "Potency": "inconclusive: 12.6 µM [activator, single point]"}
{"smiles": "CCOC(=O)N/N=C/c1ccc(Oc2ccccc2)cc1", "Potency": "inconclusive: 7.08 µM [activator, partial curve]"}
{"smiles": "CCOC(=O)c1cc(-c2ccccc2)n(CC(=O)O)c1C", "Potency": "inconclusive: 0.0355 µM [activator, full curve]"}
{"smiles": "COc1cccc(-c2nn(C)c3sc(C(=O)NCc4ccc(C)o4)cc23)c1", "Potency": "active: 15.8 µM"}
{"smiles": "COC(=O)C1C(=O)c2c([nH]c(C(=O)OCC3CCCO3)c2C)CC1C", "note": "(stereo unspecified)", "Potency": "inconclusive: 15.8 µM [activator, single point]"}
{"smiles": "O=C(N/N=C1/CCS(=O)(=O)c2ccc(F)cc21)c1ccccn1", "Potency": "inconclusive: 31.6 µM [activator, single point]"}
{"smiles": "CN1CCN(NC(=O)c2cn(-c3ccccc3)nc2-c2ccc(OC(F)F)cc2)CC1", "activity change, positive = activation": "inconclusive: 32.6% [activator]"}
{"smiles": "Cc1ccc2nc(-c3cccc(NC(=O)c4cccc5c(Cl)cccc45)c3)oc2c1", "Potency": "inactive"}
{"smiles": "CCN(CC)CCn1c(=N)n(CCOc2ccccc2Cl)c2ccccc21", "Potency": "inactive"}
{"smiles": "CCCCNC(=S)Nc1ccc(Cl)cc1", "Potency": "inconclusive: 1.12 µM [activator, full curve]"}
{"smiles": "O=S1(=O)C=C(SCCN2CCCC2)c2ccccc21", "Potency": "inconclusive: 10 µM [activator, partial curve]"}
